Laboratory results published in patent US11285169B2, “Methods for modulating chemotherapeutic cytotoxicity” (The United States of America, as represented by the …, priority 2013, dated 2022).
Like-named read-outs stand apart in the source and are kept apart here.

Assays:
WT Jurkat cells = conditions: for AC50: read-out: AC50 (μM) WT, cell viability
[1] = system: CD47 deficient (CD47 KO) Jurkat T cells; conditions: for Δ Maximal Response CD47KO-WT: difference CD47 KO minus WT Jurkat cells; for Δ LogAC50 CD47KO-WT: log AC50 difference CD47 KO minus WT; for AC50: read-out: AC50 (μM) CD47 KO, cell viability
[2] = WT Jurkat cells, 48 hours, 10^-9 to 10^-4 M, CellTiter-Glo
[3] = CD47 KO Jurkat T cells, 48 hours, 10^-9 to 10^-4 M, CellTiter-Glo
[4] = CD47 KO Jurkat T cells, 48 hours

| SMILES | Maximal Response WT (RLU) (WT Jurkat cells; [2]) | Maximal Response CD47 KO (RLU) [1, 3] | Δ Maximal Response CD47KO-WT ([1]; 48 hours) | further results |
| --- | --- | --- | --- | --- |
| C[C@]1(CO)CN(c2cc(C(=O)Nc3ccc4c(c3)-c3c(c(C(N)=O)nn3-c3ccc(F)cc3)CC4)c(Cl)cn2)C[C@@]1(C)CO [PF-184] | 15.645 RLU | 51.177 RLU | 35.532 | – |
| Nc1ccn([C@@H]2O[C@H](CO)[C@@H](O)[C@@H]2O)c(=O)n1 [Cytarabine] | 6.781 RLU | 50.088 RLU | – | maximal inhibition of viability, CD47-deficient versus WT Jurkat T cells (in words) ([1]; 48 hours): significantly decreased maximal inhibition of viability |
| CN(C)CCCN=c1c2ccccc2n(C)c2[nH]c(=O)n(C)c(=O)c12 [HLI-373989] | 1.53 RLU | 27.558 RLU | 26.028 | – |
| CO[C@H]1C[C@@H]2CC[C@@H](C)[C@@](O)(O2)C(=O)C(=O)N2CCCC[C@H]2C(=O)O[C@H]([C@H](C)C[C@@H]2CC[C@@H](OP(C)(C)=O)[C@H](OC)C2)CC(=O)[C@H](C)/C=C(\C)[C@@H](O)[C@@H](OC)C(=O)[C@H](C)C[C@H](C)/C=C/C=C/C=C/1C [Ridaforolimus] | 8.791 RLU | 33.391 RLU | – | – |
| CC(C)c1nn(-c2c(Cl)cccc2Cl)c2nc(Cc3ccc(OCCO)cc3)[nH]c(=O)c12 [RGB-286147] | 1.775 RLU | 39.37 RLU | 37.595 | – |
| CCOc1ccc(Nc2nc(-c3c(C)nc4ccccn34)cs2)cc1 [JK 184] | 13.602 RLU | 39.212 RLU | 25.61 | – |
| COc1ccc2ccc(=O)oc2c1CC=C(C)C [Osthol] | 35.688 RLU | 60.073 RLU | 24.385 | – |
| CCNC(=O)C[C@@H]1N=C(c2ccc(Cl)cc2)c2cc(OC)ccc2-n2c(C)nnc21 [I-BET762] | 9.858 RLU | 41.586 RLU | – | – |
| C/C(=C\C(=O)Nc1ccccc1C(=O)O)c1ccc2ccccc2c1 [BIBR 1532] | 23.105 RLU | 45.071 RLU | 21.966 | – |
| CC(C)Cn1cnc2c(N)nc3ccccc3c21 [Imiquimod] | 50.894 RLU | 72.849 RLU | – | – |
| CC(=O)CC(c1ccccc1)c1c(O)c2ccccc2oc1=O (stereo not shown) [Warfarin sodium] | 100.275 RLU | 121.897 RLU | – | – |
| Nc1nc(=O)n([C@H]2C[C@H](O)[C@@H](CO)O2)cc1F [NSC-48006] | 20.924 RLU | 46.143 RLU | 25.219 | – |
| Clc1ccc(Nc2nnc(Cc3ccncc3)c3ccccc23)cc1 [Vatalanib] | 14.015 RLU | 60.983 RLU | – | – |
| CC(=O)NCC(=O)N1[C@@H]2CC[C@H]1c1ccc(Nc3ncc(C(F)(F)F)c(NC4CCC4)n3)cc12 [PF-03814735] | 2.512 RLU | 25.285 RLU | 22.773 | – |
| CCCCCNC(=O)N1CCC(CN(Cc2ccc(Cl)cc2)Cc2ccc([N+](=O)[O-])s2)C1 (stereo not shown) [SR9011] | 7.859 RLU | 30.529 RLU | – | – |
| COc1cc2c(cc1O)CC[C@@H]1[C@@H]2CC[C@]2(C)[C@@H](O)CC[C@@H]12 [2-Methoxyestradiol] | 21.899 RLU | 45.435 RLU | 23.536 | AC50 (WT Jurkat cells; WT Jurkat cells, 48 hours): 0.469 µM; Δ LogAC50 CD47KO-WT [1]: 1.15; AC50 [1, 4]: 6.62 µM |
| N[C@@H](CSC(c1ccccc1)(c1ccccc1)c1ccccc1)C(=O)O [S-Trityl-L-cysteine] | 33.811 RLU | 80.305 RLU | – | – |
| CCOC(=O)C1=C(C)NC(=S)NC1c1cccc(O)c1 (stereo not shown) [Monastrol] | 32.433 RLU | 69.287 RLU | – | – |
| NC(=O)c1noc([C@H](CCCC2CCCCC2)CC(=O)NO)n1 [UK-383367] | 13.282 RLU | 49.091 RLU | 35.809 | – |
| O=C(O)[C@H]1O[C@@H](Oc2cc3oc(-c4ccccc4)cc(=O)c3c(O)c2O)[C@H](O)[C@@H](O)[C@@H]1O [Baicalin] | 52.935 RLU | 78.198 RLU | – | – |

| SMILES | Maximal Response WT (RLU) (WT Jurkat cells; [2]) | Maximal Response CD47 KO (RLU) [1, 3] | Δ Maximal Response CD47KO-WT ([1]; 48 hours) | further results |
| --- | --- | --- | --- | --- |
| CC(C)(Sc1ccc(CCN(CCCCC2CCCCC2)C(=O)NC2CCCCC2)cc1)C(=O)O [GW-7647] | 4.907 RLU | 50.573 RLU | 45.666 | – |
| CN[C@H]1CCc2cc(OC)c(OC)c(OC)c2-c2ccc(OC)c(=O)cc21 [Demecolcine] | – | – | – | Maximal Response WT (RLU) (WT Jurkat cells): 14.285 RLU; Maximal Response CD47 KO (RLU) [1]: 39.703 RLU |
| CN(C)c1ccc(C(=O)NCCCCCCC(=O)NO)cc1 [M344] | – | – | – | AC50 (WT Jurkat cells; WT Jurkat cells, 48 hours): 0.166 µM; Δ LogAC50 CD47KO-WT [1]: 0.5; AC50 [1, 4]: 0.526 µM |
| O=C(O)CNC(=O)c1c(O)c2ccccc2n(Cc2ccccc2)c1=O [IOX2] | 89.375 RLU | 113.814 RLU | 24.439 | – |
| Cc1nc2ccc(CN(C)c3ccc(C(=O)N[C@@H](CCC(=O)O)C(=O)O)s3)cc2c(=O)[nH]1 [Raltitrexed] | 22.166 RLU | 59.656 RLU | – | – |
| NS(=O)(=O)c1cc2c(cc1Cl)NCNS2(=O)=O [Hydrochlorothiazide] | 15.923 RLU | 42.166 RLU | – | – |
| CN(c1ccccc1CNc1nc(Nc2ccc3c(c2)CC(=O)N3)ncc1C(F)(F)F)S(C)(=O)=O [PF-431396] | 5.036 RLU | 40.108 RLU | 35.072 | – |
| Nc1nc(O)c2ncn(COC(CO)CO)c2n1 [Ganciclovir] | 6.562 RLU | 69.097 RLU | – | – |
| C=CC(=O)Nc1cccc(Oc2nc(Nc3ccc(N4CCN(C)CC4)cc3)ncc2Cl)c1 [WZ-3146] | – | – | – | AC50 (WT Jurkat cells; WT Jurkat cells, 48 hours): 4.18 µM; Δ LogAC50 CD47KO-WT [1]: 0.5; AC50 [1, 4]: 13.2 µM |
| CN(C)[C@@H]1C(O)=C(C(N)=O)C(=O)[C@@]2(O)C(O)=C3C(=O)c4c(O)cccc4[C@@](C)(O)[C@H]3[C@H](O)[C@@H]12 [Oxytetracycline] | 40.887 RLU | 71.104 RLU | – | – |
| COc1cccc(-c2ccc(NC(=O)C3=C(C(=O)O)CCC3)c(F)c2)c1 [Vidofludimus] | 19.287 RLU | 64.725 RLU | – | – |
| CO[C@@]12[C@H](COC(N)=O)C3=C(C(=O)C(C)=C(N)C3=O)N1C[C@@H]1N[C@@H]12 [Mitomycin] | 1.358 RLU | 25.245 RLU | – | – |
| CC#C[C@]1(O)CC[C@H]2[C@@H]3CCC4=CC(=O)CCC4=C3[C@@H](c3ccc(N(C)C)cc3)C[C@@]21C [Mifepristone] | 7.203 RLU | 38.548 RLU | – | – |
| CO[C@H]1/C=C/O[C@@]2(C)Oc3c(C)c(O)c4c(O)c(c(/C=N/N5CCN(C6CCCC6)CC5)c(O)c4c3C2=O)NC(=O)/C(C)=C\C=C\[C@H](C)[C@H](O)[C@@H](C)[C@@H](O)[C@@H](C)[C@H](OC(C)=O)[C@@H]1C [Rifapentine] | 2.402 RLU | 52.75 RLU | – | – |
| C[C@@](Cc1ccc(O)c(O)c1)(NN)C(=O)O [Carbidopa] | 12.731 RLU | 43.994 RLU | – | – |
| N#Cc1c(O)c2c(-c3ccc(-c4ccccc4O)cc3)csc2[nH]c1=O [A-769662] | 69.086 RLU | 125.676 RLU | 56.59 | – |
| CC1(C)Cc2c(-c3ccccc3)c(-c3ccc(Cl)cc3)c(CC(=O)O)n2C1 [Licofelone] | 9.166 RLU | 32.374 RLU | – | – |
| O=C(Nc1ccncc1)C(=O)c1cn(Cc2ccc(Cl)cc2)c2ccccc12 [Indibulin] | 21.582 RLU | 48.851 RLU | – | – |
| COc1cc2c(cc1Cc1cccc(Cl)c1F)c(=O)c(C(=O)O)cn2[C@H](CO)C(C)C [Elvitegravir] | 12.72 RLU | 44.755 RLU | – | – |
| CC[C@H](Nc1ncnc2[nH]cnc12)c1nc2cccc(F)c2c(=O)n1-c1ccccc1 [CAL-101] | 9.332 RLU | 32.28 RLU | – | – |
